Source: the BET-seq Pho4 binding data (Le et al. 2018)
The list shows a part of the results. Values were computed here from the reads of four pooled replicates and scatter widely.

molecular target: T1, Pho4 (S. cerevisiae) (UniProt P07270); experiment: relative binding free energy (BET-seq); higher = weaker binding; details: reference: library average
T1 sequence: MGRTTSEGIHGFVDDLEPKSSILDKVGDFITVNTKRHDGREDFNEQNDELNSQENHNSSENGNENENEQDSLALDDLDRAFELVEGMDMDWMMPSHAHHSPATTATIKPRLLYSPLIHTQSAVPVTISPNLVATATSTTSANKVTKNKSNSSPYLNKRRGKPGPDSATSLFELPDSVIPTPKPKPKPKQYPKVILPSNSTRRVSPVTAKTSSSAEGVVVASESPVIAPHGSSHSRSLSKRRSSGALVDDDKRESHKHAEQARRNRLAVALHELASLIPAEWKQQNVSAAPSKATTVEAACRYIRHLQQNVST

| Sequence | relative binding free energy |
| --- | --- |
| TTTCACACGTGTATGG | -0.02 kcal/mol |
| GGTCGCACGTGTGGTT | 0.08 kcal/mol |
| TGGGTCACGTGTGATT | 0.28 kcal/mol |
| TGGGCCACGTGTTTGT | -0.25 kcal/mol |
| TAGTTCACGTGTATAA | 0.22 kcal/mol |
| GGTTTCACGTGCCGTG | 0.35 kcal/mol |
| CGCGTCACGTGTGGGA | -0.02 kcal/mol |
| TATATCACGTGAATAT | 0.35 kcal/mol |
| GATCTCACGTGTTGAT | 0.35 kcal/mol |
| CGTGGCACGTGTGTTC | -0.21 kcal/mol |
| TATGACACGTGTCTGT | -0.01 kcal/mol |
| GCTAGCACGTGGGGTG | -0.19 kcal/mol |
| ATAGTCACGTGGTCGT | -0.07 kcal/mol |
| AAGGGCACGTGGTATA | -0.17 kcal/mol |
| GTTTTCACGTGTTACT | 0.46 kcal/mol |
| ATCTGCACGTGTTGCT | 0.08 kcal/mol |
| GAGTTCACGTGAGGTG | 0.5 kcal/mol |
| AATGGCACGTGTGTGT | -0.11 kcal/mol |
| TAGTTCACGTGTTTCG | 0.28 kcal/mol |
| GGGTTCACGTGGTCAG | 0.26 kcal/mol |
| TGGATCACGTGTGCGG | 0.18 kcal/mol |

| Sequence | relative binding free energy |
| --- | --- |
| GGGCGCACGTGAAATG | 0.17 kcal/mol |
| GGAGGCACGTGTGCAA | 0.01 kcal/mol |
| ATTTACACGTGGGGCG | -0.02 kcal/mol |
| TGGCACACGTGGTCTG | 0 kcal/mol |
| TAAGACACGTGGGTCT | -0.11 kcal/mol |
| TAAAGCACGTGGGAAG | -0.18 kcal/mol |
| CGGCTCACGTGGTAGG | 0.07 kcal/mol |
| TATAGCACGTGGGTAC | -0.23 kcal/mol |
| ATAAGCACGTGGTATG | -0.21 kcal/mol |
| GTAGTCACGTGTAGTA | 0.13 kcal/mol |
| TGGTTCACGTGCAAGA | 0.28 kcal/mol |
| GAGGTCACGTGCTAGT | 0.09 kcal/mol |
| TGACTCACGTGTGTGA | 0.27 kcal/mol |
| TGGGTCACGTGGACGT | 0.09 kcal/mol |
| TCTTGCACGTGGCGGG | 0.06 kcal/mol |
| TTGGACACGTGCGGTG | 0.01 kcal/mol |
| TGATTCACGTGAGATT | 0.46 kcal/mol |
| GAGATCACGTGTTGGT | 0.28 kcal/mol |
| CTCAGCACGTGGTTGG | -0.09 kcal/mol |
| GGTTACACGTGGGGTT | 0.06 kcal/mol |
| CGCAGCACGTGGGGTT | -0.22 kcal/mol |

| Sequence | relative binding free energy |
| --- | --- |
| TGCCGCACGTGTGAGT | 0.02 kcal/mol |
| ATTGGCACGTGGGAAC | -0.04 kcal/mol |
| TATATCACGTGTAGAA | 0.19 kcal/mol |
| GTGGACACGTGCGTTA | 0.07 kcal/mol |
| GTAGACACGTGTAGGA | 0.15 kcal/mol |
| TTATGCACGTGGGGCT | -0.11 kcal/mol |
| ATGTTCACGTGTAACT | 0.26 kcal/mol |
| AGTGGCACGTGGCTCG | -0.23 kcal/mol |
| TATGACACGTGTGGGG | 0.1 kcal/mol |
| ACTTGCACGTGAGTTG | 0.14 kcal/mol |
| TAAATCACGTGTGTTC | 0.2 kcal/mol |
| GGGAACACGTGCGTTG | -0.07 kcal/mol |
| AGCTTCACGTGGTCGG | 0.12 kcal/mol |
| GGTGCCACGTGGGAGC | -0.16 kcal/mol |
| TACATCACGTGGGTTT | 0.05 kcal/mol |
| CAGGCCACGTGGGGGT | -0.28 kcal/mol |
| TACGGCACGTGATTGG | -0.02 kcal/mol |
| GGAAACACGTGCAGGG | 0.01 kcal/mol |
| TTGGACACGTGATTTG | 0.21 kcal/mol |
| GGATTCACGTGTGAGT | 0.37 kcal/mol |
| GTAGACACGTGTGGCT | 0.12 kcal/mol |
